Assay results published in PMC9911399, “Two distinct binding modes provide the RNA-binding protein RbFox with extraordinary sequence specificity”.
Residue numbers refer to the chain shown, from its start. This is one part of the list.

T1: RBFOX1 RRM RbFoxmut (Fox-RRM*) (Homo sapiens, UniProt Q9NWB1 109-208, R118D;E147R;N151S;E152T)
T1 sequence: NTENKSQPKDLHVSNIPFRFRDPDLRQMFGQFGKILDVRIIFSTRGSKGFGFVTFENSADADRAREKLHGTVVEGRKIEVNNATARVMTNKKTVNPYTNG

B1: AAGUUUA (DNA:RNA)
RNA: GGGAGACCGGAAUUCAGAUUGUCCAAGUUUAUUAAAUCCCGUCGUAGCCACCA
DNA 1: CAATCTGAATTCCGGTCTCCC
DNA 2: TGGTGGCTACGACGGGATT
B2: UGUCCCC (DNA:RNA)
RNA: GGGAGACCGGAAUUCAGAUUGUCCUGUCCCCUUAAAUCCCGUCGUAGCCACCA
DNA 1: CAATCTGAATTCCGGTCTCCC
DNA 2: TGGTGGCTACGACGGGATT
B3: GGCGAAA (DNA:RNA)
RNA: B1 RNA with A25G, A26G, G27C, U28G, U29A, U30A
DNA 1: CAATCTGAATTCCGGTCTCCC
DNA 2: TGGTGGCTACGACGGGATT
B4: UGGACAC (DNA:RNA)
RNA: B2 RNA with U27G, C28A, C30A
DNA 1: CAATCTGAATTCCGGTCTCCC
DNA 2: TGGTGGCTACGACGGGATT
B5: CAAAUAG (DNA:RNA)
RNA: B1 RNA with A25C, G27A, U28A, U30A, A31G
DNA 1: CAATCTGAATTCCGGTCTCCC
DNA 2: TGGTGGCTACGACGGGATT
B6: ACAGUCG (DNA:RNA)
RNA: B1 RNA with A26C, G27A, U28G, U30C, A31G
DNA 1: CAATCTGAATTCCGGTCTCCC
DNA 2: TGGTGGCTACGACGGGATT
B7: GUGUGGU (DNA:RNA)
RNA: B1 RNA with A25G, A26U, U29G, U30G, A31U
DNA 1: CAATCTGAATTCCGGTCTCCC
DNA 2: TGGTGGCTACGACGGGATT
B8: AAUCAAU (DNA:RNA)
RNA: B1 RNA with G27U, U28C, U29A, U30A, A31U
DNA 1: CAATCTGAATTCCGGTCTCCC
DNA 2: TGGTGGCTACGACGGGATT
B9: GACUUCG (DNA:RNA)
RNA: B1 RNA with A25G, G27C, U30C, A31G
DNA 1: CAATCTGAATTCCGGTCTCCC
DNA 2: TGGTGGCTACGACGGGATT
B10: UCGCAUA (DNA:RNA)
RNA: B1 RNA with A25U, A26C, U28C, U29A
DNA 1: CAATCTGAATTCCGGTCTCCC
DNA 2: TGGTGGCTACGACGGGATT
B11: AAAAUCA (DNA:RNA)
RNA: B1 RNA with G27A, U28A, U30C
DNA 1: CAATCTGAATTCCGGTCTCCC
DNA 2: TGGTGGCTACGACGGGATT
B12: CGAUCAG (DNA:RNA)
RNA: B2 RNA with U25C, U27A, C28U, C30A, C31G
DNA 1: CAATCTGAATTCCGGTCTCCC
DNA 2: TGGTGGCTACGACGGGATT
B13: AGUACUA (DNA:RNA)
RNA: B1 RNA with A26G, G27U, U28A, U29C
DNA 1: CAATCTGAATTCCGGTCTCCC
DNA 2: TGGTGGCTACGACGGGATT
B14: CCGGAAA (DNA:RNA)
RNA: B1 RNA with A25C, A26C, U28G, U29A, U30A
DNA 1: CAATCTGAATTCCGGTCTCCC
DNA 2: TGGTGGCTACGACGGGATT
B15: UCUCAUG (DNA:RNA)
RNA: B2 RNA with G26C, C29A, C30U, C31G
DNA 1: CAATCTGAATTCCGGTCTCCC
DNA 2: TGGTGGCTACGACGGGATT
B16: UAUUCCG (DNA:RNA)
RNA: B2 RNA with G26A, C28U, C31G
DNA 1: CAATCTGAATTCCGGTCTCCC
DNA 2: TGGTGGCTACGACGGGATT
B17: CCUUAUU (DNA:RNA)
RNA: B1 RNA with A25C, A26C, G27U, U29A, A31U
DNA 1: CAATCTGAATTCCGGTCTCCC
DNA 2: TGGTGGCTACGACGGGATT
B18: UCGAUCU (DNA:RNA)
RNA: B1 RNA with A25U, A26C, U28A, U30C, A31U
DNA 1: CAATCTGAATTCCGGTCTCCC
DNA 2: TGGTGGCTACGACGGGATT
B19: CGAAUGC (DNA:RNA)
RNA: B2 RNA with U25C, U27A, C28A, C29U, C30G
DNA 1: CAATCTGAATTCCGGTCTCCC
DNA 2: TGGTGGCTACGACGGGATT
B20: ACAUCGU (DNA:RNA)
RNA: B1 RNA with A26C, G27A, U29C, U30G, A31U
DNA 1: CAATCTGAATTCCGGTCTCCC
DNA 2: TGGTGGCTACGACGGGATT

The binders below were run against T1, RBFOX1 RRM RbFoxmut (Fox-RRM*) (assay: EMSA; HiTS-Eq, 1 nM pool, 10 min; buffer printed only for the single-RNA assays: 10 mM Tris pH 7.5, 150 mM NaCl, 3.4 mM EDTA, 0.001% NP-40, 30 C). Conditions: tags: His6 N-terminal (pET28a); label: 5' 32P.
Procedure, shortened: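 Purified RbFox RRM (wild type or mutant) was equilibrated for 10 min in 50 µL with 1 nM of a 5′-radiolabelled pool of RNA with 7 randomized nucleotides, its flanks annealed to DNA oligonucleotides, across increasing protein concentrations. Free RNA was separated by 8% native PAGE, excised, reverse-transcribed, PCR-barcoded and sequenced on an Illumina HiSeq 2500. Relative association constants came from read-count changes of each variant against the control reaction, normalised to the cognate motif.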
In the case of B1, the binding signal is reported as 0.141 KA relative to UGCAUGU. In the case of B2, the binding signal is reported as 0.0735 KA relative to UGCAUGU. For B3, the binding signal was 0.0687 KA relative to UGCAUGU. In the case of B4, the binding signal is reported as 0.0734 KA relative to UGCAUGU. For B5, the binding signal was 0.0858 KA relative to UGCAUGU. For B6, the binding signal was 0.081 KA relative to UGCAUGU. B7 was tested, and the binding signal was 0.156 KA relative to UGCAUGU. For B8, the binding signal was 0.0475 KA relative to UGCAUGU. With B9 the binding signal was 0.0767 KA relative to UGCAUGU. For B10, the binding signal was 0.125 KA relative to UGCAUGU. For B11, the binding signal was 0.0862 KA relative to UGCAUGU. For B12, the binding signal was 0.0789 KA relative to UGCAUGU. For B13, the binding signal was 0.0837 KA relative to UGCAUGU. With B14 the binding signal was 0.0655 KA relative to UGCAUGU. For B15, the binding signal was 0.138 KA relative to UGCAUGU. For B16, the binding signal was 0.0799 KA relative to UGCAUGU. In the case of B17, the binding signal is reported as 0.107 KA relative to UGCAUGU. In the case of B18, the binding signal is reported as 0.0539 KA relative to UGCAUGU. For B19, the binding signal was 0.856 KA relative to UGCAUGU. With B20 the binding signal was 0.115 KA relative to UGCAUGU.
